Article PMC4600972
Results are given in words; binding and its absence hold for the method and conditions named. Binding seen in cells or lysates may run through a third protein. Some entries that bind do so weakly or less than the wild type. Where a sequence is shown, tags or fusion partners need not be part of it. Values belong to the molecule of their own block, whether it stands above or below them.

Protein sequences, listed by entry. Tags and fused reporters are not part of them.
UniProt Q96A37: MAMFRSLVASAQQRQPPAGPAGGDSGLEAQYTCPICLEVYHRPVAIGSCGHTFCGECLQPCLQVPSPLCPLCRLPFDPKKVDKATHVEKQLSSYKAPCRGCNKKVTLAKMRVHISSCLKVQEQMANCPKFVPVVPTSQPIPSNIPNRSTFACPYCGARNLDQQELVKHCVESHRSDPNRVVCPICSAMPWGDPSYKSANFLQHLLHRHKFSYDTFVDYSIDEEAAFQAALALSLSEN
UniProt Q7Z434: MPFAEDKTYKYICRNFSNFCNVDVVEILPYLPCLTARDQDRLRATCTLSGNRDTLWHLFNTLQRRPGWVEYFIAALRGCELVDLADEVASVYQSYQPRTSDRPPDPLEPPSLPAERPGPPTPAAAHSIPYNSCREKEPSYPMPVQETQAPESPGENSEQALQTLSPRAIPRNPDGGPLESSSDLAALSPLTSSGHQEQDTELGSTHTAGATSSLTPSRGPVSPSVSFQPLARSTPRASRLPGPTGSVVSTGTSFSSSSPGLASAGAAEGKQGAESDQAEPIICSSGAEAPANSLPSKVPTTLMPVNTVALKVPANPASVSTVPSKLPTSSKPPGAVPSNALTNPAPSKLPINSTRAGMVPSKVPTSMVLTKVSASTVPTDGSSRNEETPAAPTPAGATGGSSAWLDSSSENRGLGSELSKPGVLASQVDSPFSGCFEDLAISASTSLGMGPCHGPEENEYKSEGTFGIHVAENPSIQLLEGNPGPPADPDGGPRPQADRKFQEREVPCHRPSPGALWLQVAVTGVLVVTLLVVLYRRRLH

Target: HA-tagged Ring finger protein 166 (RNF166) (human) (UniProt Q96A37)
Assay: co-IP; 293T cells co-transfected with the indicated plasmids (RNF166 or its truncations, and Flag-tagged partners); lysis in 20 mM Tris pH 7.5, 150 mM NaCl, 1% Triton X-100, 1 mM EDTA; lysates immunoprecipitated with anti-HA; western blot with anti-HA and anti-Flag (Fig. 2D, Fig. 4F)

binding: binds
Molecule: Flag-VISA (from UniProt Q7Z434 1-540)

binding: no binding
B1: Flag-TBK1 (protein, UniProt Q9UHD2 1-729)
chain: MQSTSNHLWLLSDILGQGATANVFRGRHKKTGDLFAIKVFNNISFLRPVDVQMREFEVLKKLNHKNIVKLFAIEEETTTRHKVLIMEFCPCGSLYTVLEEPSNAYGLPESEFLIVLRDVVGGMNHLRENGIVHRDIKPGNIMRVIGEDGQSVYKLTDFGAARELEDDEQFVSLYGTEEYLHPDMYERAVLRKDHQKKYGATVDLWSIGVTFYHAATGSLPFRPFEGPRRNKEVMYKIITGKPSGAISGVQKAENGPIDWSGDMPVSCSLSRGLQVLLTPVLANILEADQEKCWGFDQFFAETSDILHRMVIHVFSLQQMTAHKIYIHSYNTATIFHELVYKQTKIISSNQELIYEGRRLVLEPGRLAQHFPKTTEENPIFVVSREPLNTIGLIYEKISLPKVHPRYDLDGDASMAKAITGVVCYACRIASTLLLYQELMRKGIRWLIELIKDDYNETVHKKTEVVITLDFCIRNIEKTVKVYEKLMKINLEAAELGEISDIHTKLLRLSSSQGTIETSLQDIDSRLSPGGSLADAWAHQEGTHPKDRNVEKLQVLLNCMTEIYYQFKKDKAERRLAYNEEQIHKFDKQKLYYHATKAMTHFTDECVKKYEAFLNKSEEWIRKMLHLRKQLLSLTNQCFDIEEEVSKYQEYTNELQETLPQKMFTASSGIKHTMTPIYPSSNTLVEMTLGMKKLKEEMEGVVKELAENNHILERFGSLTMDGGLRNVDCL

binding: no binding
B2: Flag-RIG-I (protein, UniProt O95786 1-925)
chain: MTTEQRRSLQAFQDYIRKTLDPTYILSYMAPWFREEEVQYIQAEKNNKGPMEAATLFLKFLLELQEEGWFRGFLDALDHAGYSGLYEAIESWDFKKIEKLEEYRLLLKRLQPEFKTRIIPTDIISDLSECLINQECEEILQICSTKGMMAGAEKLVECLLRSDKENWPKTLKLALEKERNKFSELWIVEKGIKDVETEDLEDKMETSDIQIFYQEDPECQNLSENSCPPSEVSDTNLYSPFKPRNYQLELALPAMKGKNTIICAPTGCGKTFVSLLICEHHLKKFPQGQKGKVVFFANQIPVYEQQKSVFSKYFERHGYRVTGISGATAENVPVEQIVENNDIIILTPQILVNNLKKGTIPSLSIFTLMIFDECHNTSKQHPYNMIMFNYLDQKLGGSSGPLPQVIGLTASVGVGDAKNTDEALDYICKLCASLDASVIATVKHNLEELEQVVYKPQKFFRKVESRISDKFKYIIAQLMRDTESLAKRICKDLENLSQIQNREFGTQKYEQWIVTVQKACMVFQMPDKDEESRICKALFLYTSHLRKYNDALIISEHARMKDALDYLKDFFSNVRAAGFDEIEQDLTQRFEEKLQELESVSRDPSNENPKLEDLCFILQEEYHLNPETITILFVKTRALVDALKNWIEGNPKLSFLKPGILTGRGKTNQNTGMTLPAQKCILDAFKASGDHNILIATSVADEGIDIAQCNLVILYEYVGNVIKMIQTRGRGRARGSKCFLLTSNAGVIEKEQINMYKEKMMNDSILRLQTWDEAVFREKILHIQTHEKFIRDSQEKPKPVPDKENKKLLCRKCKALACYTADVRVIEECHYTVLGDAFKECFVSRPHPKPKQFSSFEKRAKIFCARQNCSHDWGIHVKYKTFEIPVIKIESFVVEDIATGVQTLYSKWKDFHFEKIPFDPAEMSK

binding: no binding
B3: Flag-IRF3 (protein, UniProt Q14653 1-427)
chain: MGTPKPRILPWLVSQLDLGQLEGVAWVNKSRTRFRIPWKHGLRQDAQQEDFGIFQAWAEATGAYVPGRDKPDLPTWKRNFRSALNRKEGLRLAEDRSKDPHDPHKIYEFVNSGVGDFSQPDTSPDTNGGGSTSDTQEDILDELLGNMVLAPLPDPGPPSLAVAPEPCPQPLRSPSLDNPTPFPNLGPSENPLKRLLVPGEEWEFEVTAFYRGRQVFQQTISCPEGLRLVGSEVGDRTLPGWPVTLPDPGMSLTDRGVMSYVRHVLSCLGGGLALWRAGQWLWAQRLGHCHTYWAVSEELLPNSGHGPDGEVPKDKEGGVFDLGPFIVDLITFTEGSGRSPRYALWFCVGESWPQDQPWTKRLVMVKVVPTCLRALVEMARVGGASSLENTVDLHISNSHPLSLTSDQYKAYLQDLVEGMDFQGPGES

binding: no binding
B4: Flag-MDA5 (protein, UniProt Q9BYX4 1-1025)
chain: MSNGYSTDENFRYLISCFRARVKMYIQVEPVLDYLTFLPAEVKEQIQRTVATSGNMQAVELLLSTLEKGVWHLGWTREFVEALRRTGSPLAARYMNPELTDLPSPSFENAHDEYLQLLNLLQPTLVDKLLVRDVLDKCMEEELLTIEDRNRIAAAENNGNESGVRELLKRIVQKENWFSAFLNVLRQTGNNELVQELTGSDCSESNAEIENLSQVDGPQVEEQLLSTTVQPNLEKEVWGMENNSSESSFADSSVVSESDTSLAEGSVSCLDESLGHNSNMGSDSGTMGSDSDEENVAARASPEPELQLRPYQMEVAQPALEGKNIIICLPTGSGKTRVAVYIAKDHLDKKKKASEPGKVIVLVNKVLLVEQLFRKEFQPFLKKWYRVIGLSGDTQLKISFPEVVKSCDIIISTAQILENSLLNLENGEDAGVQLSDFSLIIIDECHHTNKEAVYNNIMRHYLMQKLKNNRLKKENKPVIPLPQILGLTASPGVGGATKQAKAEEHILKLCANLDAFTIKTVKENLDQLKNQIQEPCKKFAIADATREDPFKEKLLEIMTRIQTYCQMSPMSDFGTQPYEQWAIQMEKKAAKEGNRKERVCAEHLRKYNEALQINDTIRMIDAYTHLETFYNEEKDKKFAVIEDDSDEGGDDEYCDGDEDEDDLKKPLKLDETDRFLMTLFFENNKMLKRLAENPEYENEKLTKLRNTIMEQYTRTEESARGIIFTKTRQSAYALSQWITENEKFAEVGVKAHHLIGAGHSSEFKPMTQNEQKEVISKFRTGKINLLIATTVAEEGLDIKECNIVIRYGLVTNEIAMVQARGRARADESTYVLVAHSGSGVIEHETVNDFREKMMYKAIHCVQNMKPEEYAHKILELQMQSIMEKKMKTKRNIAKHYKNNPSLITFLCKNCSVLACSGEDIHVIEKMHHVNMTPEFKELYIVRENKALQKKCADYQINGEIICKCGQAWGTMMVHKGLDLPCLKIRNFVVVFKNNSTKKQYKKWVELPITFPNLDYSECCLFSDED
